Here are results for 60 compounds from ChEMBL document CHEMBL1201862, “PubChem BioAssay data set” (2004).

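Interpolation was linear, between the two tested concentrations surrounding the appropriate level; five concentrations were tested over 48 hours in 96-well plates. GI50 = concentration required for 50% inhibition of growth.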 The source made the active and inactive calls. No stated cut-off is given here; in the data, active = GI50 up to about 1.1 µM and inactive = higher.

This assay deals with NCI-H322M. Nature of the assay: inhibition of tumour cell growth, NCI panel, 48 h.
For the compound `Nc1ccn(C2CCC(CO)O2)c(=S)n1` (stereo not given), the GI50 was inactive: > 100 µM. Turning to `COc1cc2cc3c4c(cc(OC)c(OC)c4c2cc1OC)CCN3C`, the GI50 was inactive: 35.7 µM. On to `COc1cccc2c1C1(O)C2CCCCCCCCCC12OCCCO2` (stereo not given), for which the GI50 was inactive: > 45.8 µM.

Turning to `COc1ccc(Oc2nc(C#CC(C)(C)O)nc(Oc3ccc(OC)cc3)n2)cc1`, the GI50 was inactive: 16.3 µM.

In the case of `NCCC1CN(C(=O)OCc2ccccc2)c2ccccc21` (stereo not given), the GI50 was inactive: 18.7 µM.

Regarding `CC(C)=CCc1c(O)cc2oc(-c3ccc(O)cc3O)cc(=O)c2c1O`, the GI50 is inactive: 33 µM. In the case of `CC1(C)C(C#N)C1C1=C(N2CCOCC2)[C@]2(C)C(OC(=O)c3ccccc3)CC[C@@H]2C1` (stereo not given in full) it was inactive: > 100 µM. In the case of `Cc1ccc(C(=O)Nc2ccc(CP(=O)(O)O)cc2)cc1NC(=O)c1cccc(N)c1` it was inactive: > 100 µM. As to `COC(=O)C(CCC#N)(CCC#N)C(=O)OC`, the GI50 is inactive: > 100 µM. In the case of `O=[N+]([O-])c1ccc(Cl)cc1C1SCc2nc3ccccc3n21` (stereo not given) it was inactive: 28.6 µM; in that of `c1ccc2c(c1)c1c(n2CCOCCN2CCCCC2)CCCC1`, inactive: 15.3 µM. With `CNc1ncnc2c1cnn2CCCCO`, the GI50 is inactive: > 100 µM. In the case of `Cc1c(/C=N/NS(=O)(=O)c2ccccc2)no[n+]1[O-]`, the GI50 was inactive: > 100 µM. Regarding `O=C1/C(=C/c2ccc3c(c2)OCO3)SC2C=Nc3ccccc3N12` (stereo not given), the GI50 was inactive: > 100 µM. On to `S=c1[nH]c2ccc(Br)cc2c(=S)n1-c1ccccc1`, for which the GI50 was inactive: 17.8 µM. Take `CS(=O)(=O)CC1=Nc2nnc(CCCCCCCc3nnc4n3C(=O)C(CS(C)(=O)=O)=N4)n2C1=O`: the GI50 was inactive: > 100 µM. For `CCOC(=O)Nc1nn[nH]c1Cl`, the GI50 is inactive: > 100 µM.

Take `COc1ccccc1C[C@@H]1OC2(C=CC(=O)C=C2)O[C@H]1Cc1ccccc1OC`: the GI50 was inactive: 24.8 µM. The value for `Cn1c(O)c(C(=O)NC2CCCCC2)c(=O)n(C)c1=S` was inactive: 7.48 µM. In the case of `CCSc1cc(=O)n(C)c(=O)n1C` it was inactive: > 100 µM; in that of `COc1cc(COC(=O)N2CSCC2C(=O)O)c([N+](=O)[O-])cc1OC` (stereo not given), inactive: > 100 µM. With `c1cc2ccc1C1NCCCN1CCN1CCCNC1c1ccc(cc1)C1NCCCN1CCN1CCCNC21` (stereo not given), the GI50 is inactive: > 100 µM.

Take `CCOc1ccc(/N=N/c2c(-c3ccccc3)nn(C(=O)CC(=O)Nc3cccc(C)c3)c2-c2ccccc2)cc1`: the GI50 is inactive: 88.7 µM. As for `COC(=O)CCNC(=O)OCc1ccccc1`, the GI50 is inactive: > 100 µM. In the case of `CCSC(=O)C1(C)OC2CCCCC2C1=O` (stereo not given) it was inactive: > 100 µM; in that of `CC1=NNC(=O)C1C1CC(c2c[nH]c3ccccc23)=NN(c2ccccc2)C1=O` (stereo not given), inactive: > 100 µM; in that of `C/C(=N\Nc1ccccc1)c1sc(-c2nc(C)c(/C(C)=N/Nc3ccccc3)s2)nc1C`, inactive: 22.8 µM.

Regarding `Cc1cc(C)nc(NS(=O)(=O)c2ccc(Nc3c4ccc(Cl)cc4nc4c(C(=O)Nc5ccc(S(N)(=O)=O)cc5)cccc34)cc2)n1`, the GI50 was inactive: 23.7 µM. For the compound `O=C(c1ccccc1)c1ccc2[nH]c(-c3c(Cl)c(Cl)c(Cl)c(Cl)c3C(=O)N/N=C/c3ccccc3)nc2c1`, the GI50 is inactive: 30.3 µM. The value for `CCOC(=O)COc1ccccc1/C=C1\CCC(CN(C)C)C1=O` (stereo not given) was inactive: 17.4 µM; that for `S=C1/C(=N/c2ccccc2)N(C2CCCCC2)/C(=N\C2CCCCC2)N1c1ccccc1` was inactive: > 100 µM; that for `[N-]=[N+]=NC1=C(N=[N+]=[N-])c2cccc3cccc(c23)C1=O` was inactive: > 100 µM. The value for `O=C1c2ccccc2CC12Cc1ccc3c(c1C2=O)CCCC3` (stereo not given) was inactive: > 100 µM; that for `CC(OC(C)(C)C)[C@H](NC(=O)OCC(Cl)(Cl)Cl)C(=O)O` (stereo not given in full) was inactive: > 100 µM.

On to `NS(=O)(=O)c1ccc(NC(=O)c2ccc3nc4ccccc4c(Nc4ccc(S(N)(=O)=O)cc4)c3c2)cc1`, for which the GI50 was inactive: > 100 µM. In the case of `NC(=S)N/N=C1\CCCC1C(O)(C(F)(F)Cl)C(F)(F)Cl` (stereo not given) it was inactive: > 10 µM; in that of `O=C1CC(c2cccc([N+](=O)[O-])c2)C2(C(=O)NC(=S)NC2=O)C(c2cccc([N+](=O)[O-])c2)C1` (stereo not given), inactive: 12.2 µM. The value for `CCN(CC)CCn1c(=O)c2ccccc2n2c3c(=O)n(C)c(=O)n(C)c3nc12` was inactive: 2.54 µM; that for `Cc1ccc2c(ccc(/C=C\c3cc(C)c4cccnc4c3O)[n+]2C)c1` was inactive: 15.6 µM.

For `CC(=O)OCC1OC(N2C(=O)C(=O)c3cc(C)ccc32)C(OC(C)=O)C(OC(C)=O)C1OC(C)=O` (stereo not given), the GI50 is inactive: > 100 µM. The value for `O=C1C(=C/C=C2/SC(c3ccccc3)(c3ccccc3)c3ccccc32)C(=O)c2ccccc21` was inactive: > 100 µM; that for `O=C(NC1C(=O)NNC1c1cccc([N+](=O)[O-])c1)c1ccccc1` (stereo not given) was inactive: > 100 µM. With `CC(=O)C(C(=O)c1ccc(C)cc1)[C@@H]1OC(C)(C)O[C@@H]1[C@H]1COC(C)(C)O1` (stereo not given in full), the GI50 is inactive: 15.3 µM.

Regarding `C=CCc1c(C)nc(C)nc1N/N=C/C=C/c1ccccc1`, the GI50 is inactive: 51.2 µM. The value for `O=C(CC(=O)c1cccc2ccccc12)C(=O)Nc1ccc(Cl)cc1` was inactive: > 100 µM; that for `CCOC(=O)C(=CNc1ccc(S(N)(=O)=O)cc1)C(=O)OCC` was inactive: > 100 µM. For `COc1cc2c(cc1Cl)[n+]([O-])c(C#N)c(N1CCN(c3ccc([N+](=O)[O-])cc3)CC1)[n+]2[O-]`, the GI50 is inactive: > 83.4 µM. In the case of `C#Cc1c(C)c(/C=C/C(C)=C/C(=O)OC)n(C)c1C` it was inactive: > 100 µM.

`COc1ccc2c3c1C(=O)CCCC3CO2` (stereo not given): the GI50 was inactive: > 100 µM. Take `CC1=C[C@H]2C[C@@]3(C)O[C@@H]([C@]4(C)CC[C@H]([C@@H](C)C(=O)O)OO4)CC3C(C)(C)[C@H]2CC1` (stereo not given in full): the GI50 is inactive: 2.4 µM.

For `CCOC(=O)c1nc2ccc(OC)cc2c2c1Cc1ccccc1-2`, the GI50 was inactive: > 100 µM. The value for `O=C(Nc1sccc1S(=O)(=O)c1ccc(Cl)cc1)C(F)(F)F` was inactive: 23.5 µM. The value for `C=CCC(CCC(C)=O)(C(=O)OCC)C(=O)OCC` was inactive: > 100 µM. The value for `O=C(O)C1CC2C3CCC2C1C3=O` (stereo not given) was inactive: > 100 µM; that for `CO/N=C(\C)CCC#Cc1ccccc1C(=O)OC` was inactive: > 10 µM; that for `CCOC(=O)C(C)c1nc2cc(N3CCOCC3)c(F)cc2[nH]c1=O` (stereo not given) was inactive: > 100 µM. Consider `Cc1ccc2c(c1C)C(=O)C1(C2)Cc2ccc3c(c2C1=O)CCC3` (stereo not given), for which the GI50 is inactive: > 100 µM. The value for `c1cnc2c(c1)-n1cccc1C1(CCSCC1)NN2` was inactive: > 100 µM. `O=S(O)CCCSSCCCCSSCCCS(=O)O`: the GI50 is inactive: > 100 µM. For `Cc1ccc(C)c(NC(=O)c2cccc([N+](=O)[O-])c2O)c1`, the GI50 was inactive: 21.2 µM.
